This note sets out measurements from a collection of fitness landscapes (doi:10.1016/j.celrep.2020.107928).

Whole data set: some 81,000 sequences, median “one-hybrid fitness for binding NBS DNA” near -0.1, cut for the highest 2% near 0.36. The list shows a part of the results. Some results are limits rather than exact numbers.

B1: Caulobacter ParB omega fusion; a variant is named by its letters at X, in order, B8GW30 (parent)
chain: MESVVVGEPGMSEGRRGLGRGLSALLGEVDAAPAQAPGEQLGGSREAPIEILQRNPDQPRRTFREEDLEDLSNSIREKGVLQPILVRPSPDTAGEYQIVAGERAWRAAQRAGLKTVPIMVRELDDLAVLEIGIIENVQRADLNVLEEALSYKVLMEKFERTQENIAQTIGKSXSHVANXMRLLXLPDEVQSYLVSGELTAXHARAIAAAADPVALAKQIIEGGLSVRETEALARKAPNLSAGKSKGGRPPRVKDTDTQALESDLSSVLGLDVSIDHRGSTGTLTITYATLEQLDDLCNRLTRGI

Variants of B1 are the subject of the assay. Briefly: one-hybrid fitness for binding NBS DNA (the Noc-binding site; scaled: cognate 1, non-cognate 0); higher = stronger binding. The settings on record: with NBS DNA site. The method in brief: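 Values were rescaled so that cognate is 1 and non-cognate is 0. Each is a fitness, the log change in a variant's read ratio to wild type from Illumina reads of plasmids before and after selection, with three replicate libraries pooled and variants under 10 reads dropped. Selection of the Caulobacter ParB libraries, four specificity codons randomised, used E. coli USO with a HIS3 reporter, site 19 bp from the promoter, on M9-minus-histidine with 0.1 mM IPTG and 5 mM 3-AT for 48 hours at 37°C.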
Turning to LPPE, the “one-hybrid fitness for binding NBS DNA” value was not above 0.2.

For CRGG, the “one-hybrid fitness for binding NBS DNA” value is not above 0.2.

Take ELRY: the “one-hybrid fitness for binding NBS DNA” value was not above 0.2.

As for YMLN, the “one-hybrid fitness for binding NBS DNA” value is not above 0.2.

With REQG, the “one-hybrid fitness for binding NBS DNA” value is not above 0.2.

As to TSKC, the “one-hybrid fitness for binding NBS DNA” value was not above 0.2.

Regarding RVKN, the “one-hybrid fitness for binding NBS DNA” value worked out at 0.203.

Turning to QMYN, the “one-hybrid fitness for binding NBS DNA” value was not above 0.2.

Take CRYG: the “one-hybrid fitness for binding NBS DNA” value is not above 0.2.

As for ALNF, the “one-hybrid fitness for binding NBS DNA” value was not above 0.2.

As to FMTP, the “one-hybrid fitness for binding NBS DNA” value is not above 0.2.

As for WNIV, the “one-hybrid fitness for binding NBS DNA” value is not above 0.2.

Take DTER: the “one-hybrid fitness for binding NBS DNA” value was not above 0.2.

For the variant PHTF, the “one-hybrid fitness for binding NBS DNA” value is not above 0.2.

For LVLC, the “one-hybrid fitness for binding NBS DNA” value was not above 0.2.

RLTR: the “one-hybrid fitness for binding NBS DNA” value came to 0.443.

Turning to TQNE, the “one-hybrid fitness for binding NBS DNA” value was not above 0.2.

In the case of WNLP, the “one-hybrid fitness for binding NBS DNA” value is not above 0.2.

Consider RCDR, for which the “one-hybrid fitness for binding NBS DNA” value was found to be 0.255.

With RAFL, the “one-hybrid fitness for binding NBS DNA” value was not above 0.2.

Consider FPLI, for which the “one-hybrid fitness for binding NBS DNA” value was not above 0.2.

On to APHS, for which the “one-hybrid fitness for binding NBS DNA” value is not above 0.2.

As for TQNK, the “one-hybrid fitness for binding NBS DNA” value is not above 0.2.

TFKG: the “one-hybrid fitness for binding NBS DNA” value is not above 0.2.

For the variant ATNK, the “one-hybrid fitness for binding NBS DNA” value is not above 0.2.

For HLSI, the “one-hybrid fitness for binding NBS DNA” value is not above 0.2.

WLCR: the “one-hybrid fitness for binding NBS DNA” value is not above 0.2.

Take SCES: the “one-hybrid fitness for binding NBS DNA” value was not above 0.2.

On to MILS, for which the “one-hybrid fitness for binding NBS DNA” value was not above 0.2.

As for YLPE, the “one-hybrid fitness for binding NBS DNA” value was not above 0.2.

Regarding PKMS, the “one-hybrid fitness for binding NBS DNA” value is not above 0.2.

In the case of SVDI, the “one-hybrid fitness for binding NBS DNA” value is not above 0.2.

For AKTF, the “one-hybrid fitness for binding NBS DNA” value is not above 0.2.

Turning to PVYI, the “one-hybrid fitness for binding NBS DNA” value is not above 0.2.

For the variant RMWR, the “one-hybrid fitness for binding NBS DNA” value was 0.289.

Take WQPK: the “one-hybrid fitness for binding NBS DNA” value is not above 0.2.

For the variant APWK, the “one-hybrid fitness for binding NBS DNA” value was not above 0.2.

For IVFT, the “one-hybrid fitness for binding NBS DNA” value was not above 0.2.

Consider AIVP, for which the “one-hybrid fitness for binding NBS DNA” value was not above 0.2.

For DPIG, the “one-hybrid fitness for binding NBS DNA” value is not above 0.2.

For NCEM, the “one-hybrid fitness for binding NBS DNA” value was not above 0.2.

As to NFPF, the “one-hybrid fitness for binding NBS DNA” value was not above 0.2.

Turning to LEAN, the “one-hybrid fitness for binding NBS DNA” value came to 0.333.

Regarding LVPS, the “one-hybrid fitness for binding NBS DNA” value is not above 0.2.

Regarding PSGE, the “one-hybrid fitness for binding NBS DNA” value is not above 0.2.

Regarding CNLT, the “one-hybrid fitness for binding NBS DNA” value was not above 0.2.

With QLRS, the “one-hybrid fitness for binding NBS DNA” value is 0.586.

As to ILAK, the “one-hybrid fitness for binding NBS DNA” value was not above 0.2.

TWRH: the “one-hybrid fitness for binding NBS DNA” value was not above 0.2.

VDES: the “one-hybrid fitness for binding NBS DNA” value is not above 0.2.

For the variant YRFT, the “one-hybrid fitness for binding NBS DNA” value was not above 0.2.

RGEG: the “one-hybrid fitness for binding NBS DNA” value is not above 0.2.

Regarding RMRV, the “one-hybrid fitness for binding NBS DNA” value is 0.24.

As to ALPG, the “one-hybrid fitness for binding NBS DNA” value is not above 0.2.

As for VALV, the “one-hybrid fitness for binding NBS DNA” value is not above 0.2.

Take HAYL: the “one-hybrid fitness for binding NBS DNA” value was not above 0.2.

As to QMVP, the “one-hybrid fitness for binding NBS DNA” value was not above 0.2.

ITKA: the “one-hybrid fitness for binding NBS DNA” value was not above 0.2.

Take AINR: the “one-hybrid fitness for binding NBS DNA” value was not above 0.2.

In the case of ASYL, the “one-hybrid fitness for binding NBS DNA” value was not above 0.2.

As for LLDN, the “one-hybrid fitness for binding NBS DNA” value is not above 0.2.

On to QSHK, for which the “one-hybrid fitness for binding NBS DNA” value is not above 0.2.

Consider MPMY, for which the “one-hybrid fitness for binding NBS DNA” value was not above 0.2.

Take CNLY: the “one-hybrid fitness for binding NBS DNA” value was not above 0.2.

In the case of YPDM, the “one-hybrid fitness for binding NBS DNA” value is not above 0.2.

NMCN: the “one-hybrid fitness for binding NBS DNA” value was not above 0.2.

On to MRVQ, for which the “one-hybrid fitness for binding NBS DNA” value is not above 0.2.

In the case of KCGT, the “one-hybrid fitness for binding NBS DNA” value was not above 0.2.

For the variant TLTI, the “one-hybrid fitness for binding NBS DNA” value was not above 0.2.

With HPQM, the “one-hybrid fitness for binding NBS DNA” value was not above 0.2.

EVIR: the “one-hybrid fitness for binding NBS DNA” value was not above 0.2.

As for QKFI, the “one-hybrid fitness for binding NBS DNA” value was not above 0.2.

As for NSRP, the “one-hybrid fitness for binding NBS DNA” value is not above 0.2.

On to DTQT, for which the “one-hybrid fitness for binding NBS DNA” value was not above 0.2.

For the variant QVYV, the “one-hybrid fitness for binding NBS DNA” value was not above 0.2.

For the variant TPNN, the “one-hybrid fitness for binding NBS DNA” value was not above 0.2.

CVYR: the “one-hybrid fitness for binding NBS DNA” value was not above 0.2.

Turning to VENR, the “one-hybrid fitness for binding NBS DNA” value is not above 0.2.

For the variant PIRN, the “one-hybrid fitness for binding NBS DNA” value is not above 0.2.

With TSTM, the “one-hybrid fitness for binding NBS DNA” value is not above 0.2.

As for RHAL, the “one-hybrid fitness for binding NBS DNA” value was not above 0.2.

On to RPLF, for which the “one-hybrid fitness for binding NBS DNA” value was not above 0.2.

As to KYAE, the “one-hybrid fitness for binding NBS DNA” value was not above 0.2.

For the variant PDIL, the “one-hybrid fitness for binding NBS DNA” value is not above 0.2.

Turning to SYTV, the “one-hybrid fitness for binding NBS DNA” value was not above 0.2.

In the case of NGAF, the “one-hybrid fitness for binding NBS DNA” value was not above 0.2.

YHMT: the “one-hybrid fitness for binding NBS DNA” value was not above 0.2.

For the variant RTWI, the “one-hybrid fitness for binding NBS DNA” value was not above 0.2.

Turning to ANGG, the “one-hybrid fitness for binding NBS DNA” value is not above 0.2.

For the variant YCSG, the “one-hybrid fitness for binding NBS DNA” value was not above 0.2.

As for TLNT, the “one-hybrid fitness for binding NBS DNA” value is not above 0.2.

For the variant HVDM, the “one-hybrid fitness for binding NBS DNA” value was not above 0.2.

For the variant SPRS, the “one-hybrid fitness for binding NBS DNA” value was not above 0.2.

Take EMAM: the “one-hybrid fitness for binding NBS DNA” value is not above 0.2.

Consider MGQN, for which the “one-hybrid fitness for binding NBS DNA” value is not above 0.2.

Regarding NCRE, the “one-hybrid fitness for binding NBS DNA” value is not above 0.2.

On to QHTA, for which the “one-hybrid fitness for binding NBS DNA” value came to 0.24.

With KRLH, the “one-hybrid fitness for binding NBS DNA” value is not above 0.2.
